The supplement of paper PMC11417369
± gives the standard deviation of the averaged measurements. The list shows a part of the results.

What follows are sequences tested on PfAP2-I AP2 domain 3 (GST-tagged) (assay: gcPBM binding intensity (ln(normalized median fluorescence intensity)); higher = stronger DNA binding).
Summary of the method: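 Binding of GST-tagged P. falciparum DNA-binding domains, expressed in E. coli and used at about 25 μg on average, was carried out for 1 h in 1× PBS containing 1% milk, 0.2 mg/ml BSA, 0.5% salmon testes DNA and 0.03% Triton X-100. The target was an Agilent 4 × 180k array of primer-extended double-stranded 36-bp intergenic genomic probes plus negative controls, read with Alexa488 anti-GST antibody at 488 nm. Binding intensity is the highest Masliner-normalised natural-log median intensity across replicate spots of either probe orientation.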

Sequence | gcPBM binding intensity (ln)
TGTATGTATTTTCAATGTACATAAAAAAAAAAAAAA [XGTACX_site4397] | 8.07 ± 0.51
TATTTTTTTTGTTAGGTGCATTTACATTTATTTTTA | 10.8 ± 0.61
AAAAATTAAAAGAAAATACACACCTGTGGGTGCTTA [CACACA_site1988] | 7.34 ± 0.73
TTATATAGGCAGATGGTGCATCTATTTATAAGCAAC | 9.78 ± 0.12
AAAAAAAAAAGTTCTACACACACAAAAAAATATTTT [CACACA_site8725] | 7.62 ± 0.67
TGCATACTAGCCAATTGTACATAATTTTATTTTAAA [XGTACX_site513] | 7.8 ± 0.31
ATTATGATTTTATAGAACTGAACATTTACATTAAAT [GTGCAC_negctrl_site192] | 7.58 ± 0.45
AAAATAAATCTGAATGGGGTATAATATATCTTTGTT [CACACA_negctrl_site744] | 7.61 ± 0.59
AAAAGGAACAGACACACACACATATATATATATATA [CACACA_site3587] | 9.54 ± 0.57
ATTTATTATATATACACACATACATATATATATATA [CACACA_site2159] | 9.23 ± 0.38
ATAACAAAATAAAACACACACACAAATGTACTTATA [CACACA_site8768] | 7.83 ± 0.31
TGCTTTTATTTCTTCACACATATGTAAAAAAAAGAA [CACACA_site5906] | 8.21 ± 0.23
AAAAAATTCTGGTACTGTACACATTTTTTTAAATTT [XGTACX_site6904] | 7.76 ± 0.38
ATACGAAAAAAAAAAAGTACACAAAAATATCTACAT [XGTACX_site2051] | 7.96 ± 0.19
ATATAAATAATGTTGACACACACAATAATCTTATTA [CACACA_site9197] | 7.66 ± 0.67
AAAATATGGATTCATGATATTAAATTTAATTTAATG [XGTACX_negctrl_site214] | 7.41 ± 0.55
GTTATACTCATATATACACACATATGTAAATATATA [CACACA_site5764] | 7.82 ± 0.46
ATTATATTAGGTAATCAGTTAAATGTTTCCTTTTTA [CACACA_negctrl_site1229] | 7.44 ± 0.62
TTTATATAATTTTGTGGTACTTATGTGTGTATATTA [XGTACX_site706] | 7.99 ± 0.45
AAAAAAAAAAAAAGTACACACTTATAAAATATTATG [CACACA_site4639] | 8.03 ± 0.071
TAAATTATCTTTTTATGTACTTATTTTTATTATTTT [XGTACX_site3158] | 7.75 ± 0.7
CGCGCACCCAGACACACACACACACCGATATATATA [CACACA_site8687] | 8.46 ± 0.83

Sequence | gcPBM binding intensity (ln)
TATTTTCAACATATTTGTACATATTTTATATTTTAA [XGTACX_site101] | 7.96 ± 0.42
AAGAAAAAAAAAATTACACACTGCGGACATACACAA [CACACA_site4838] | 7.97 ± 0.67
TCAATTTTACTTGTTTGTACATAAAATAATAAGGTT [XGTACX_site3732] | 7.74 ± 0.45
AACATACACATATACACACACACATATATACCTATA [CACACA_site6643] | 8.14 ± 0.59
ATATTTTGTTTTTGTTCTTTTTTTTTCTTTTTTTTT [CACACA_negctrl_site1342] | 7.58 ± 0.76
TATATTAAATGAAACAAACACACATAGCCTTTAAAT [CACACA_site1559] | 7.69 ± 0.57
ATATCTACTATACAACTGAGTGTAGAAAAATTAAAC [CACACA_negctrl_site1211] | 8.07 ± 0.63
ACTTTGCTCTACAATGCATGCTCATTTAACAAGGCA [TGCATGCA_site676] | 8.27 ± 0.81
ATATTTATAAATTGCACACAAATAATAACATTCTAT [CACACA_site2357] | 8.69 ± 0.014
AATTGGGAAGGACATGCATGAGAAATTAATATTGCA [TGCATGCA_site424] | 7.82 ± 0.67
TATTATTATTATGGTAGTACATGTAGGTTATTAAAA [XGTACX_site5742] | 8.28 ± 0.25
TAATTCGCATTTTATACACACATTCGAACCTTTTTT [CACACA_site7549] | 7.97 ± 0.61
AAATTAATACATTATTGTACTTTTCATGTGCAGAAA [XGTACX_site8284] | 8.31 ± 0.18
CGGATGAATATATATGCACACATCTTTTGTAAAAAT [CACACA_site3190] | 9.16 ± 0.11
CATATTACATTAAATTGTACATATATATATATATAT [XGTACX_site3295] | 9.43 ± 0.55
TGTATAAATATATGCACACATATATATATTTATATA [CACACA_site3473] | 9.09 ± 0.52
TCAATAAATGAATATGCATGCACGCTCTTTAGAGAT [TGCATGCA_site553] | 10.8 ± 0.5
GAGAAAAAAAAAAAAAAACACACGGTACATTCAAAG [CACACA_site1767] | 7.67 ± 0.75
AAAAAAAAAAAAAAATGTACATATATATAAATATAT [XGTACX_site6768] | 7.97 ± 0.28
TATTTATATGTATATACATGCACATATATATGAAAC [TGCATGCA_site1005] | 8.35 ± 0.57
ATATATATATATATATGTACATATTTTTATTTATAC [XGTACX_site2858] | 9.36 ± 0.46
TATGTAATGTTTACAACACACAAATTATAAATACAA [CACACA_site1771] | 7.6 ± 0.37
